# In the supplement of paper PMC8728848:
# The other results are listed elsewhere or left out.
# B1: HPL (Tachypleus tridentatus) (protein)
# chain: MEDDCTCVTDRSLEGKLMKHPSTPAVYQILDGCRRLVPNPPTYNNIYKNWECIQSNILEKLLCKCDSLSNGAELIKGSGDTVYLLSNGVKRPIADPETFNGFCFDWNKIKTYSDIVINSLSTGPIIIIKHHHHHH
# Assays:
# Assay in all cases: glycan array binding signal (z-score within array); higher = stronger binding
# Details in all cases: glycan notation: IUPAC condensed, linker removed
# [1] = biological target: Neu5Ac(a2-6)Gal(b1-4)GlcNAc(b1-3)Gal(b1-4)GlcNAc(b1-3)GalNAc
# How it was run: (§1)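 The binding signal is a Z-score computed within each array and averaged over linkers. Arrays of the same protein sequence at different concentrations or buffers were also averaged together. Data originate from 3228 arrays in the Consortium for Functional Glycomics database, kept only where the protein sequence was available.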
# [2] = biological target: Neu5Ac(a2-6)Gal(b1-4)GlcNAc(b1-3)Gal(b1-4)GlcNAc(b1-3)[Neu5Ac(a2-6)Gal(b1-4)GlcNAc(b1-3)Gal(b1-4)GlcNAc(b1-6)]GalNAc
# How it was run: as §1
# [3] = biological target: Neu5Ac(a2-6)Gal(b1-4)GlcNAc(b1-3)Gal(b1-4)GlcNAc(b1-6)[Gal(b1-3)]GalNAc
# How it was run: as §1
# [4] = biological target: Neu5Ac(a2-6)Gal(b1-4)GlcNAc(b1-3)Gal(b1-4)[Fuc(a1-3)]GlcNAc(b1-3)Gal(b1-4)[Fuc(a1-3)]GlcNAc
# How it was run: as §1
# [5] = biological target: Neu5Ac(a2-6)Gal(b1-4)GlcNAc(b1-3)GalNAc
# How it was run: as §1
# [6] = biological target: Neu5Ac(a2-6)Gal(b1-4)GlcNAc(b1-3)[Neu5Ac(a2-6)Gal(b1-4)GlcNAc(b1-6)]GalNAc
# How it was run: as §1
# [7] = biological target: Neu5Ac(a2-6)Gal(b1-4)GlcNAc(b1-6)GalNAc
# How it was run: as §1
# [8] = biological target: Neu5Ac(a2-6)Gal(b1-4)GlcNAc(b1-6)[Gal(b1-3)GlcNAc(b1-3)]Gal(b1-4)Glc
# How it was run: as §1
# [9] = biological target: Neu5Ac(a2-6)Gal(b1-4)GlcNAc(b1-6)[Gal(b1-3)]GalNAc
# How it was run: as §1
# [10] = biological target: Neu5Ac(a2-6)Gal(b1-4)GlcNAc6S
# How it was run: as §1
# Neu5Ac(a2-6)GalNAc = biological target: Neu5Ac(a2-6)GalNAc
# How it was run: as §1
# [11] = biological target: Neu5Ac(a2-6)GalNAc(b1-4)GlcNAc
# How it was run: as §1
# [12] = biological target: Neu5Ac(a2-6)GalNAc(b1-4)GlcNAc6S
# How it was run: as §1
# [13] = biological target: Neu5Ac(a2-6)GlcNAc(b1-4)GlcNAc
# How it was run: as §1
# [14] = biological target: Neu5Ac(a2-6)GlcNAc(b1-4)GlcNAc(b1-4)GlcNAc
# How it was run: as §1
# Neu5Ac(a2-8)Neu5Ac = biological target: Neu5Ac(a2-8)Neu5Ac
# How it was run: as §1
# [15] = biological target: Neu5Ac(a2-8)Neu5Ac(a2-3)Gal(b1-3)GalNAc(b1-4)[Neu5Ac(a2-3)]Gal(b1-4)Glc
# How it was run: as §1
# [16] = biological target: Neu5Ac(a2-8)Neu5Ac(a2-3)Gal(b1-3)GalNAc(b1-4)[Neu5Ac(a2-8)Neu5Ac(a2-3)]Gal(b1-4)Glc
# How it was run: as §1
# [17] = biological target: Neu5Ac(a2-8)Neu5Ac(a2-3)Gal(b1-4)Glc
# How it was run: as §1
# [18] = biological target: Neu5Ac(a2-8)Neu5Ac(a2-3)Gal(b1-4)GlcNAc
# How it was run: as §1
# [19] = biological target: Neu5Ac(a2-8)Neu5Ac(a2-3)[Gal(b1-3)GalNAc(b1-4)]Gal(b1-4)Glc
# How it was run: as §1
# [20] = biological target: Neu5Ac(a2-8)Neu5Ac(a2-3)[GalNAc(b1-4)]Gal(b1-4)Glc
# How it was run: as §1
# [21] = biological target: Neu5Ac(a2-8)Neu5Ac(a2-8)Neu5Ac
# How it was run: as §1
# [22] = biological target: Neu5Ac(a2-8)Neu5Ac(a2-8)Neu5Ac(a2-3)Gal(b1-4)Glc
# How it was run: as §1
# [23] = biological target: Neu5Ac(a2-8)Neu5Ac(a2-8)Neu5Ac(a2-3)[Gal(b1-3)GalNAc(b1-4)]Gal(b1-4)Glc
# How it was run: as §1
# [24] = biological target: Neu5Ac(a2-8)Neu5Ac(a2-8)Neu5Ac(a2-3)[GalNAc(b1-4)]Gal(b1-4)Glc
# How it was run: as §1
# [25] = biological target: Neu5Ac(a2-8)Neu5Ac(a2-8)Neu5Ac(a2-8)Neu5Ac(a2-3)[GalNAc(b1-4)]Gal(b1-4)Glc
# How it was run: as §1
# [26] = biological target: Neu5Ac(a2-8)Neu5Gc(a2-3)Gal(b1-4)GlcNAc
# How it was run: as §1
# [27] = biological target: Neu5Ac(b2-6)Gal(b1-4)GlcNAc
# How it was run: as §1
# Neu5Ac(b2-6)GalNAc = biological target: Neu5Ac(b2-6)GalNAc
# How it was run: as §1
# [28] = biological target: Neu5Ac9Ac(a2-3)Gal(b1-3)GlcNAc
# How it was run: as §1
# [29] = biological target: Neu5Ac9Ac(a2-3)Gal(b1-4)GlcNAc
# How it was run: as §1
# [30] = biological target: Neu5Ac9Ac(a2-6)Gal(b1-4)GlcNAc
# How it was run: as §1
# [31] = biological target: Neu5Gc(a2-3)Gal(b1-3)GlcNAc
# How it was run: as §1
# [32] = biological target: Neu5Gc(a2-3)Gal(b1-3)[Fuc(a1-4)]GlcNAc
# How it was run: as §1
# Neu5Gc(a2-3)Gal(b1-4)Glc = biological target: Neu5Gc(a2-3)Gal(b1-4)Glc
# How it was run: as §1
# [33] = biological target: Neu5Gc(a2-3)Gal(b1-4)GlcNAc
# How it was run: as §1
# [34] = biological target: Neu5Gc(a2-3)Gal(b1-4)GlcNAc(b1-3)Gal(b1-4)GlcNAc(b1-2)Man(a1-3)[Neu5Gc(a2-3)Gal(b1-4)GlcNAc(b1-3)Gal(b1-4)GlcNAc(b1-2)Man(a1-6)]Man(b1-4)GlcNAc(b1-4)GlcNAc
# How it was run: as §1
# [35] = biological target: Neu5Gc(a2-3)Gal(b1-4)[Fuc(a1-3)]GlcNAc
# How it was run: as §1
# [36] = biological target: Neu5Gc(a2-6)Gal(b1-4)GlcNAc
# How it was run: as §1
# Neu5Gc(a2-6)GalNAc = biological target: Neu5Gc(a2-6)GalNAc
# How it was run: as §1
# [37] = biological target: Neu5Gc(a2-8)Neu5Ac(a2-3)Gal(b1-4)GlcNAc
# How it was run: as §1
# [38] = biological target: Neu5Gc(a2-8)Neu5Gc(a2-3)Gal(b1-4)GlcNAc
# How it was run: as §1
# [39] = biological target: Neu5Gc(a2-8)Neu5Gc(a2-3)Gal(b1-4)GlcNAc(b1-3)Gal(b1-4)GlcNAc
# How it was run: as §1
# [40] = biological target: Neu5Gc(a2-8)Neu5Gc(a2-6)Gal(b1-4)GlcNAc
# How it was run: as §1
# [41] = biological target: Neu5Gc(b2-6)Gal(b1-4)GlcNAc
# How it was run: as §1
binder,measurement,setting,value
B1,glycan array binding signal (z-score),[1],-0.144
same,glycan array binding signal (z-score),[2],0.169
same,glycan array binding signal (z-score),[3],-0.132
same,glycan array binding signal (z-score),[4],-0.441
same,glycan array binding signal (z-score),[5],0.38
same,glycan array binding signal (z-score),[6],0.127
same,glycan array binding signal (z-score),[7],0.774
same,glycan array binding signal (z-score),[8],-0.279
same,glycan array binding signal (z-score),[9],0.26
same,glycan array binding signal (z-score),[10],-0.356
same,glycan array binding signal (z-score),Neu5Ac(a2-6)GalNAc,-0.114
same,glycan array binding signal (z-score),[11],-0.27
same,glycan array binding signal (z-score),[12],-0.216
same,glycan array binding signal (z-score),[13],-0.447
same,glycan array binding signal (z-score),[14],-0.012
same,glycan array binding signal (z-score),Neu5Ac(a2-8)Neu5Ac,-0.236
same,glycan array binding signal (z-score),[15],0.063
same,glycan array binding signal (z-score),[16],0.431
same,glycan array binding signal (z-score),[17],-0.175
same,glycan array binding signal (z-score),[18],-0.359
same,glycan array binding signal (z-score),[19],-0.113
same,glycan array binding signal (z-score),[20],-0.254
same,glycan array binding signal (z-score),[21],-0.143
same,glycan array binding signal (z-score),[22],-0.058
same,glycan array binding signal (z-score),[23],0.289
same,glycan array binding signal (z-score),[24],-0.215
same,glycan array binding signal (z-score),[25],0.102
same,glycan array binding signal (z-score),[26],-0.361
same,glycan array binding signal (z-score),[27],-0.383
same,glycan array binding signal (z-score),Neu5Ac(b2-6)GalNAc,-0.377
same,glycan array binding signal (z-score),[28],-0.334
same,glycan array binding signal (z-score),[29],-0.231
same,glycan array binding signal (z-score),[30],-0.318
same,glycan array binding signal (z-score),[31],-0.215
same,glycan array binding signal (z-score),[32],-0.155
same,glycan array binding signal (z-score),Neu5Gc(a2-3)Gal(b1-4)Glc,-0.266
same,glycan array binding signal (z-score),[33],-0.199
same,glycan array binding signal (z-score),[34],0.164
same,glycan array binding signal (z-score),[35],-0.205
same,glycan array binding signal (z-score),[36],-0.33
same,glycan array binding signal (z-score),Neu5Gc(a2-6)GalNAc,-0.359
same,glycan array binding signal (z-score),[37],-0.391
same,glycan array binding signal (z-score),[38],-0.415
same,glycan array binding signal (z-score),[39],-0.29
same,glycan array binding signal (z-score),[40],-0.184
same,glycan array binding signal (z-score),[41],-0.308
